# About 800 (1.6%) of roughly 50,000 compounds showed an effect of 50% or more. This is one part of the list.
# Target: Bcl-2-like protein 10 (Homo sapiens) (UniProt Q9HD36)
# Test: Phenotype converters, Bcl-B/TR3 peptide binding displacement, primary biochemical FP (AID 1240);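 note: 0% = Bcl-B with tracer peptide and DMSO and 100% = tracer peptide lacking Bcl-B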
# Settings: GST-Bcl-B / FITC-TR3 peptide fluorescence polarization; stronger effect = higher value; compound at 3.75 mg/L
# Chain of UniProt Q9HD36 (Q9HD36 whole entry, looked up): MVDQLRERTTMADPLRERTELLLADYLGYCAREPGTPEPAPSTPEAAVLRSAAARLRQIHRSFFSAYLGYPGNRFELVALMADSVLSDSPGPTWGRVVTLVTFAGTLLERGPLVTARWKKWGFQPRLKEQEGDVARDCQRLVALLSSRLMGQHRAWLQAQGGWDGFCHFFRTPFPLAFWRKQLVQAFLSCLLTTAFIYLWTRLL
row,SMILES,displacement [%]
1,CN(C)C(=O)COc1ccc2c3c(c(=O)oc2c1)CCCC3,-24.9
2,Cc1nc2ccccc2n1CC(O)COc1ccc(I)cc1 (configuration not stated),-18.5
3,Cc1cc(C)nc(SCC(=O)NCCc2ccccc2)n1,8.2
4,CC(C)NC(=O)c1ccc(Cl)c([N+](=O)[O-])c1,7.7
5,Cc1ccc(S(=O)(=O)N2CCCCC2)cc1[N+](=O)[O-],0.3
6,O=C(Nc1ccc2c(c1)C(=O)c1ccccc1C2=O)c1cccnc1,-5.4
7,CC(C)(C)NC(=O)C1CCC(C)(C(=O)O)C1(C)C (configuration not stated),9.8
8,COc1ccccc1N(C(=O)C(Cl)(Cl)Cl)C1C=CS(=O)(=O)C1 (configuration not stated),1.4
9,Cc1ccc(OCC(=O)O/N=C(\N)c2ccc(Cl)cc2)cc1,-4
10,COc1ccc(NS(=O)(=O)c2ccccc2[N+](=O)[O-])cc1Cl,2.1
11,CCCOc1ccc(N2C(=O)CC(N(CCc3ccccc3)C(=S)Nc3ccccc3)C2=O)cc1 (configuration not stated),2.2
12,CCOC(=O)C1C(=O)CC(C)(O)C(C(=O)OCC)C1c1ccc2c(c1)OCO2 (configuration not stated),4.5
13,COc1ccc(Oc2coc3cc(O)ccc3c2=O)cc1,25.3
14,O=Cc1ccccc1OCc1ccc(I)cc1,-7.1
15,COc1cccc(C(=O)Nc2ccc(I)cc2C)c1,10.3
16,COc1ccc(C2CC(=O)C3=C(C2)Nc2ccccc2NC3c2ccc(-c3ccccc3)cc2)cc1OC (configuration not stated),16.7
17,Cc1n[nH]c(C)c1CCCCCCOc1ccc(C(C)(C)C)cc1,10
18,COc1ccc(/C=N/NC(=O)Cc2cccn2C)cc1[N+](=O)[O-],-7.9
19,Cc1ccccc1NCN1C(=O)S/C(=C/C=C/c2ccccc2)C1=O,1
20,Cc1cc(OCC(O)CN2CCN(Cc3ccccc3)CC2)cc(C)c1Cl (configuration not stated),-4.5
21,CCOc1cc(C(=O)Nc2cccc3ccccc23)cc(OCC)c1OCC,15.8
22,CCC(CO)Nc1nc2c(c(=O)n(C)c(=O)n2C)n1C (configuration not stated),6.8
23,CCOc1ccc2c(C)cc(=O)oc2c1I,-1.7

row,SMILES,displacement [%]
1,CCc1ccc(NC(=O)c2c(-c3ccccc3)noc2C)cc1,-6.1
2,O=c1/c(=C/c2ccccc2Cl)sc2nnc(-c3ccccc3Cl)n12,-16.4
3,Cc1ccc(-c2csc(NC(=O)C(F)(F)F)n2)cc1C,-0.7
4,Cc1sc2nc(SC3C=CCCC3)[nH]c(=O)c2c1C (configuration not stated),-18.9
5,CCCc1cc(=O)oc2cc(OCC(=O)C(C)(C)C)ccc12,6.2
6,N/C(=N\OC(=O)c1cccc(Br)c1)c1ccc([N+](=O)[O-])cc1,-2.2
7,Cc1ccccc1N=C1NC(=O)CS1,-2.8
8,Cc1cc(/C=N/n2cnnc2)c(C)n1-c1ccc(Cl)cc1,11.7
9,N/C(=N/N=C/c1ccc2c(c1)OCO2)c1ccccn1,-7.7
10,COC(=O)c1ccc(N2C(=O)C3C(C2=O)C2C=CC3C23CC3)cc1 (configuration not stated),17.1
11,Cc1ccc(OCC(=O)O/N=C(\N)Cc2ccc([N+](=O)[O-])cc2)c(C)c1,5.9
12,CCn1c2c(c3cc(OCC(C)C)ccc31)CCCC2=O,7
13,COc1ccc(Br)cc1C(=O)Nc1cc2nn(-c3ccc(C)cc3)nc2cc1C,-6.9
14,CCCC1=NN2C(=N)/C(=C/c3ccc(OCc4ccc(F)cc4)c(OCC)c3)C(=O)N=C2S1,-6.7
15,COc1cc(C)c(CNc2ccccc2)cc1C,8.9
16,O=C(NCCCN1CCOCC1)C(=O)Nc1cccc(Cl)c1Cl,2.3
17,C/C(=N\NC(=O)c1cccc([N+](=O)[O-])c1)c1cccnc1,6.5
18,COc1cc(C2Nc3ccccc3C(=O)N2c2ccc(Cl)cc2)ccc1O (configuration not stated),14.9
19,COc1ccc(S(=O)(=O)N2CCCC2C(=O)O)cc1 (configuration not stated),-6.8
20,CCOC(=O)C(=CNc1ccccc1F)C(=O)OCC,6.6
21,COc1ccc(/C=C2\C(=O)N(c3ccc(S(N)(=O)=O)cc3)N=C2C)cc1,2.1
22,O=C(O)COc1ccc(N2C(=O)C=CC2=O)cc1,3.9
23,Cc1ccc(-c2ccc(OCC(=O)N3CCOCC3)cc2)cc1,4.4

row,SMILES,displacement [%]
1,CCOC(=O)c1c(C)oc2cc(Br)c(OCC(N)=O)cc12,9.3
2,O=C(Nc1cccc(NC(=O)c2ccc3ccccc3c2)c1)c1cccc(Cl)c1,-4.9
3,Cc1c(NC(=O)c2cccc(F)c2)c(=O)n(-c2ccccc2)n1C,6.1
4,CCOc1cccc(N2C(=O)CC(SCC(=O)Nc3ccc(Cl)cc3)C2=O)c1 (configuration not stated),-2.5
5,CCN(CC)Cc1c(O)ccc2oc(C)c(C(=O)c3ccc(OC)cc3OC)c12,-9.2
6,N/C(=N/c1nc2ccccc2o1)NC(=O)Cc1ccccc1,-12.8
7,Cc1ccc(COc2cc3oc(=O)c4c(c3cc2Cl)CCC4)cc1,9.2
8,O=[N+]([O-])c1cnc(N2CCN(Cc3ccccc3)CC2)c([N+](=O)[O-])c1,5.4
9,CCc1c(C)nc2ccc(OC)cc2c1SCC(=O)O,-15.5
10,Cc1cc([N+](=O)[O-])ccc1-c1ccc(C(=O)Nc2cc(Cl)cc(Cl)c2)o1,12.3
11,CCOc1ccc(Cl)cc1/C=C1/SC(=S)N(c2ccccc2)C1=O,0.3
12,CCCCCCOc1ccc(N2C(=O)CC(SC(N)=Nc3ccccc3)C2=O)cc1 (configuration not stated),8.7
13,CCOc1cc(/C=N/n2cnnc2)ccc1OCCOc1ccc(C)cc1,11.2
14,CC(c1ccccc1)c1nnc(N)s1 (configuration not stated),6.6
15,CCCCOc1ccc(C(=O)NCC(C)c2ccccc2)cc1 (configuration not stated),-2.9
16,COc1cc(OC)cc(C(=O)N2CCN(C3CCC(c4ccccc4)CC3)CC2)c1 (configuration not stated),5.3
17,COc1ccccc1/C=C1/SC(=S)N(CCC(=O)N2c3ccccc3Sc3ccccc32)C1=O,9.4
18,O=C1CSC2(C(=O)Nc3ccccc32)N1c1ccc(Cl)c(Cl)c1 (configuration not stated),9
19,CCOP(=O)(CN1CCN(CP(=O)(OCC)OCC)CC1)OCC,4.4
20,Cc1ccc(C(=O)CSc2ccccc2C(=O)O)cc1,0
21,CC(/C=C1\SC(=S)N(C(Cc2ccccc2)C(=O)O)C1=O)=C\c1ccccc1 (configuration not stated),17.3
22,O=C(N/N=C\c1ccccn1)c1c[nH]c2ccccc12,3
23,O=c1n(Cc2c(F)cccc2Cl)c2ccccc2n1Cc1c(F)cccc1Cl,15.9

row,SMILES,displacement [%]
1,Cc1cc(C)cc(N(CC(=O)Nc2ccc3c(c2)OCO3)S(=O)(=O)c2ccccc2)c1,1.8
2,COc1ccc(/C=C(\NC(=O)c2ccc(Cl)cc2)C(=O)NCCCN2CCOCC2)cc1OC,13.6
3,CCN(CC)c1ccc(C(=O)Nc2ccc(Cl)c(Cl)c2)cc1,9.6
4,Cc1nc(N)sc1C(=O)N/N=C/c1cccc(O)c1,6.3
5,CCOCCOC(=O)C1=C(C)N(CC)C(=O)NC1c1ccc([N+](=O)[O-])cc1 (configuration not stated),4.6
6,COc1ccc(N2C(=O)C(Cl)=C(NCc3ccccc3)C2=O)cc1,14.9
7,CCn1c2ccccc2c2cc(CN3CCN(C(=O)c4cccs4)CC3)ccc21,-8.5
8,COc1ccc(N(CC(=O)NCc2ccncc2)S(=O)(=O)c2ccccc2[N+](=O)[O-])c(OC)c1,-21.7
9,Cc1ccc(C(=O)c2cccc(N3C(=O)c4ccccc4C3=O)c2)cc1C,-5.2
10,CC(=O)OCCCN1C(=O)c2ccc(S(=O)(=O)c3ccc4c(c3)C(=O)N(CCCOC(C)=O)C4=O)cc2C1=O,10.4
11,Cc1ccc(C2CC(=O)Nc3c2cc(Br)c2ccccc32)s1 (configuration not stated),-3.9
12,O=C(N/N=C/c1ccc(O)cc1O)c1cnccn1,-15.8
13,CCCCCOC(=O)C1=C(C)NC2=C(C(=O)CCC2)C1c1cccc(Cl)c1Cl (configuration not stated),13.3
14,N/C(=N/OCc1cccc([N+](=O)[O-])c1)c1nonc1N,3
15,COc1ccccc1OCc1ccoc1C(=O)O,7.5
16,CCOCCOC(=O)C(C)Sc1n[nH]c(=O)[nH]c1=O (configuration not stated),1
17,COc1ccc(NC(=O)c2ccc(N(C)C)cc2)cc1,3.7
18,O=C(CCCN1C(=O)c2cccc3cccc(c23)C1=O)N1CCCCC1,-3.3
19,COc1ccc(C(=O)c2c(C)oc3ccc(O)cc23)cc1OC,7.3
20,O=C(Nc1ccncc1)c1cc2c(ccc3ccccc32)oc1=O,9.6
21,CCOC(=O)C1=C(O)CSC1=Nc1ccc(F)cc1,-8.1
22,Cc1cc(/C=N/N2C(=O)c3ccccc3C2=O)c(C)n1-c1ccccc1,11.4
23,COc1ccc(Oc2c(C(F)(F)F)oc3c(CN4CCCC4)c(O)ccc3c2=O)cc1,13.2

row,SMILES,displacement [%]
1,CCOC(=O)c1ccccc1Nc1cn(C(C)=O)c2ccccc12,-1.7
2,Cc1cccc(CC2CC(=O)N(c3ccccc3)C2=O)c1 (configuration not stated),12.1
3,CCc1ccc(/C=N/N2CCN(Cc3cccc4ccccc34)CC2)cc1,-3.1
4,O=C(N1CCOCC1)N1CCN(c2ccc(F)cc2)CC1,14.1
5,COc1ccc(CCNC(=O)CN(c2ccc(Br)cc2)S(C)(=O)=O)cc1OC,-8.4
6,Cc1cc(C)nc(/N=C(/N)Nc2ccc(C(=O)O)cc2)n1,1.3
7,CCCOC(=O)c1ccc(NC(=O)c2c(-c3c(Cl)cccc3Cl)noc2C)cc1,7.4
8,CCCCSc1nnc2c(n1)OC1(Nc3ccccc3-2)C(=O)Nc2ccc(F)cc21 (configuration not stated),7.9
9,CCCn1c(C(O)c2cc(OC)ccc2OC)nc2ccccc21 (configuration not stated),-2
10,O=C(Nc1ccc(Cl)cn1)c1cc(Br)ccc1Cl,-0.7
11,COc1cc(C2NC(=O)NC(C)=C2C(=O)OCCc2ccccc2)cc(Cl)c1O (configuration not stated),13.6
12,O=C1CSC(=S)N1N1C(=O)c2ccccc2C1=O,-1.3
13,Cc1cc(C)c(OCCN2CCOCC2)c(Cl)c1,7
14,C/C(=C\c1ccccc1)C(=O)Nc1c(C)n(C)n(-c2ccccc2)c1=O,1.6
15,CCOC(=O)C1CCCn2c1nc1scc(-c3ccccc3)c1c2=O (configuration not stated),-14.2
16,COc1ccc(NC(=O)C2=C(C)NC(=O)NC2c2ccc(C)cc2)cc1 (configuration not stated),0
17,CCOc1cc(/C=N/N2CCN(Cc3ccc(Cl)cc3)CC2)ccc1O,25
18,CC12C(=O)C(C)(C(c3ccccc3)=C1c1ccccc1)C1C(=O)N(c3ccc(Cl)cc3)C(=O)C12 (configuration not stated),4.5
19,COC(=O)C(C(=O)OC)C(c1ccccc1)C(C(=O)OC)C(=O)OC,-8.5
20,CN(C)CCN1C(=O)C(=O)/C(=C(/O)c2ccccc2)C1c1ccc(N(C)C)cc1 (configuration not stated),3.8

# Source: PubChem BioAssay AID1240 (Sanford-Burnham Center for Chemical Genomics, 2008)
